In PubChem BioAssay (NCATS) one finds AC50 data, which are given here for 29 compounds.

The list shows a part of the results. The main result of the screen is listed elsewhere. These columns were measured beside it and carry no call. Most of these compounds were active or inconclusive in the main read-out, so they are no random draw. Potencies come from curve fits of mixed quality, noted in brackets.
Tags give direction and shape of the fitted curve.

This experiment is described as follows: qHTS Assay for Lipid Storage Modulators (AID 1519). To be noted: Drosophila S3 cells, BODIPY lipid droplet/cell ratio, laser cytometry; measured here: lipid (BODIPY) channel AC50; cells loaded with oleic acid. A digest of the protocol: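 Cells seeded at 5,000 per well were treated with compounds over a concentration series and loaded with oleic acid (400 uM, as added). Lipid droplet fluorescence (488 nm excitation, 500-530 nm channel) was read by laser-scanning cytometry and normalized to 20 uM Triacsin C.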
(In qHTS, concentration-response curves come from the screen itself.)
As a reminder, the AC50 is the concentration at which the activity in the assay is half-maximal. Regarding `COc1ccc(-n2c(=O)cnc3cnc(Oc4cccc(Cl)c4)nc32)cc1`, the AC50 was 0.01 µM [rising, full curve, poor fit]. Under `COc1cccc(Nc2ncc3nc(-c4ccc(Cl)cc4)c(=O)n(C[C@H]4CCCO4)c3n2)c1` stands 39.8 µM [falling, single point]. The figure for `NC(Cc1cc(I)c(Oc2cc(I)c(O)c(I)c2)c(I)c1)C(=O)O` (centres undefined) is 14.1 µM [rising, partial curve]; for `C[C@]12CCC3c4ccc(O)cc4CCC3C1CCC2OC(=O)CCC1CCCC1` (some centres undefined) it is 39.8 µM [falling, single point]; for `CN1CCN(c2ccnc(-c3cccnc3)n2)CC1` it is 11.2 µM [rising, partial curve, poor fit].

`N#Cc1ccc(CN2CCCC3(CCN(C(=O)c4cnccn4)CC3)C2)cc1`: the AC50 was 3.16 µM [rising, partial curve, poor fit].

For the compound `O=C(c1ccncc1)N1CCC2(CCCN(c3ncccn3)C2)CC1`, the AC50 is 0.158 µM [rising, full curve, poor fit]. Under `CCN(CC)CC(=O)Nc1c(C)cccc1C` stands 0.0398 µM [rising, full curve, poor fit].

In the case of `Nc1nc(/C(=C/CC(=O)O)C(=O)NC2C(=O)N3C(C(=O)O)=CCSC23)cs1` (centres undefined), the concentration at half-maximal activity (AC50) is 39.8 µM [rising, single point]. Consider `Cc1nc2cnc(N3CCOCC3)nc2n(CCc2ccccc2)c1=O`, for which the AC50 was 1.12 µM [rising, full curve, poor fit].

Take `O=C(Nc1cccc(F)c1)N1CCCC2(CCN(C(=O)c3cccc(F)c3)CC2)C1`: the concentration at half-maximal activity (AC50) is 0.158 µM [rising, full curve, poor fit]. Under `COc1cccc(-c2cncnc2NCc2cccc(C)c2)c1` stands 3.55 µM [rising, full curve, poor fit]; under `O=C(c1cnccn1)N1CCC2(CC1)CCN(c1ccccn1)CC2`, 0.794 µM [rising, single point]; under `CN(C)C(=O)c1ccc(-c2ccc3ncnc(NCc4ccccc4)c3c2)cc1`, 2.82 µM [rising, full curve, poor fit]. The figure for `c1cncc(CNc2ncncc2-c2ccoc2)c1` is 8.91 µM [rising, full curve, poor fit]; for `CN(C)c1ncc2nc(-c3cc(F)cc(F)c3)c(=O)n(Cc3ccc(F)cc3)c2n1` it is 0.794 µM [rising, full curve, poor fit]. The figure for `FC(F)(F)c1ccccc1-c1cncnc1NCc1cccs1` is 2.24 µM [rising, full curve, poor fit]; for `CC(C)(C)c1ccc([C@@H](O)CCCN2CCC(C(O)(c3ccccc3)c3ccccc3)CC2)cc1` it is 15.8 µM [falling, single point]; for `COc1cccc(Cn2c(=O)c(-c3cccs3)nc3cnc(N4CCNCC4)nc32)c1` it is 0.631 µM [rising, full curve, poor fit]. As for `O=C(c1ccco1)N1CCC2(CCCN(Cc3ccccc3)C2)CC1`, the AC50 is 5.62 µM [rising, partial curve]. Under `O=c1c(-c2ccc(F)cc2)nc2cncnc2n1C1CC1` stands 0.00501 µM [rising, full curve, poor fit]; under `N#CCCn1c(=O)cnc2cnc(Oc3cccc(Cl)c3)nc21`, 10 µM [rising, partial curve, poor fit]; under `O=C(c1cnccn1)N1CCC[C@@]2(CCN(c3cccc(-c4ccccc4)c3)C2)C1`, 0.0282 µM [rising, partial curve, poor fit]. Under `CC(=O)Oc1c(-c2ccccc2)oc2c(CC=C(C)C)c3c(c(OC(C)=O)c2c1=O)C=CC(C)(C)O3` stands 7.94 µM [rising, partial curve]; under `COCC(=O)N1CCC2(CC1)CN(Cc1ccccc1OC)C2`, 39.8 µM [rising, single point].

For the compound `O=C1C=CC(=C(c2ccc(O)cc2)c2ccc(O)cc2)C=C1`, the AC50 is 20 µM [falling, single point]. Under `C=C1c2cccc(O)c2C(O)=C2C(=O)[C@]3(O)C(O)=C(C(N)=O)C(=O)C(N(C)C)C3C(O)C12` (some centres undefined) stands 28.2 µM [rising, single point]; under `O=c1c(-c2ccc(F)cc2)nc2cncnc2n1-c1ccccc1`, 3.16 µM [rising, full curve, poor fit]; under `O=C(Nc1ccccc1)N1CCC2(CC1)CCN(C(=O)c1cccc(F)c1)CC2`, 0.0316 µM [rising, full curve, poor fit].
